Data on 42 molecules can be found in ChEMBL document CHEMBL4888484, “Replenishing the malaria drug discovery pipeline: Screening and hit evaluation of the MMV Hit Generation Library 1 (HGL1) against asexual blood stage Plasmodium falciparum ,using a nano luciferase reporter read-out” (2022).

About 540 (0.36%) of roughly 150,000 compounds showed an effect of 50% or more. Some of the results follow.

This assay relates to Plasmodium falciparum. Briefly: Primary screen in NF54 nanoGlo assay, in single point, at 2uM, 72h; a lower Z score goes with more inhibition. It is filed as functional, Erythrocyte. The note with it: timepoint 72 hour.
A word on the % Inhibition: it is the change of the read-out against control, counted positive when it falls. `COc1ccc(Cc2nc3c4c(ncn3n2)Oc2cc(O)ccc2[C@@H]4c2ccc(OC)cc2)cc1`: the “% Inhibition” value is -2% and the Z score is 0.19.

Regarding `Cc1nn(-c2ncccn2)c2c1[C@@H](c1cccc(OCc3cccc(Cl)c3)c1)CC(=O)N2`, the “% Inhibition” value is recorded as 26% and the Z score is given as -2.91.

For the molecule `Cc1cc(-c2c(C)sc(C)c2S(=O)(=O)Nc2ccc(F)c(Cl)c2)[nH]n1`, the “% Inhibition” value is -6% and the Z score is 0.69.

In the case of `CC1=CCN(C(=O)Nc2nccs2)CC1`, the “% Inhibition” value stood at 36% and the Z score is listed as -4.11.

`CCCCN1CCN([C@@H](C(=O)NC2CCCC2)c2ccccc2)C(=O)C1=O`: the “% Inhibition” value came out at 3% and the Z score is given as -0.35.

For the molecule `CC(C)c1ccoc1C(=O)Nc1cccc2c1OC(C)(C)C[C@@H]2O`, the “% Inhibition” value is on record as 2% and the Z score is -0.37.

Consider `CCCN(Cc1nc(-c2ccc(OC)c3ccccc23)oc1C)C[C@H]1CCCO1`, for which the “% Inhibition” value is -18% and the Z score was 1.97.

With `CCN(CC)C(=O)CC[C@@H]1CNC(=O)[C@@H]2C[C@H](NCc3cccc(Cl)c3)CN12`, the “% Inhibition” value is on record as -17% and the Z score is listed as 3.1.

With `CC1CCN(C[C@H]2CCCN(c3nnc(C(F)(F)F)s3)C2)CC1`, the “% Inhibition” value is reported as -5% and the Z score was determined as 0.88.

Consider `O=C(c1coc(CN(CCc2c[nH]c3ccccc23)Cc2ccccc2Cl)n1)N1CCOCC1`, for which the “% Inhibition” value was -23% and the Z score is 2.35.

For `CCC[C@@H]1NC(=O)N(Cc2nsc(N(C)C)n2)C1=O`, the “% Inhibition” value came out at 10% and the Z score was -1.49.

Regarding `COc1ccc(CNC(=O)c2nn3c(c2Br)N[C@@H](c2ccc(Br)o2)C[C@H]3C(F)(F)F)cc1`, the “% Inhibition” value is reported as -9% and the Z score is recorded as 1.35.

Turning to `C[C@H](Oc1ccccc1)C(=O)N1CCC(=C2CC2)CC1`, the “% Inhibition” value is reported as -6% and the Z score is on record as 0.67.

Consider `COC(=O)c1ccc(NC(=O)c2ccc(N3C(=O)CCS3(=O)=O)cc2Cl)cc1`, for which the “% Inhibition” value is given as -2% and the Z score amounted to 0.3.

On to `CCc1nc(CN(C)Cc2cccnc2OC)no1`, for which the “% Inhibition” value is recorded as 3% and the Z score is recorded as -0.36.

Take `O=C(c1ccncn1)N1CC(F)(F)C[C@H]1COc1ccc2c(c1)CCC2`: the “% Inhibition” value was -5% and the Z score turned out to be 0.86.

Take `O=C(c1cc2n(n1)CCN(Cc1ccccc1)C2)N1CCCOCC1`: the “% Inhibition” value is reported as 4% and the Z score is reported as -0.56.

For `CCC[C@H](NC(=O)NCc1nn(CC)nc1C)C1CCC1`, the “% Inhibition” value is -6% and the Z score is listed as 0.77.

For the molecule `c1cc(-c2noc(C3CC3)n2)cc(N2CCOCC2)n1`, the “% Inhibition” value is given as -13% and the Z score was 1.84.

Take `CCN1CCCC1CNC(=O)C1c2ccccc2C(=O)N(CCOC)C1c1ccc(F)cc1` (centres undefined): the “% Inhibition” value was found to be 1% and the Z score is -0.14.

For the molecule `O=C(Cn1cnc2ccccc2c1=O)N(Cc1ccccc1)[C@H]1CCS(=O)(=O)C1`, the “% Inhibition” value is -4% and the Z score is 0.66.

Consider `O=C(Nc1ccccc1)OC1CCCC(NC(=O)c2c(F)cccc2Cl)C1` (centres undefined), for which the “% Inhibition” value was 14% and the Z score is -1.56.

Turning to `O=C(Nc1cccc(S(=O)(=O)N2CCOCC2)c1)c1cc(Cl)c2c(c1)OCCCO2`, the “% Inhibition” value is listed as -5% and the Z score is 1.07.

On to `Cc1cccc(NCC2CCCCC2)c1C(N)=O`, for which the “% Inhibition” value is listed as -6% and the Z score came out at 0.82.

Take `CN(Cc1ccsc1)C(=O)NCCc1cccn1C`: the “% Inhibition” value was 0% and the Z score was -0.04.

Take `CN(C)CCN(Cc1ccc(OS(=O)(=O)c2ccc(F)cc2)cc1)C(=O)CCC1CCCC1`: the “% Inhibition” value is 10% and the Z score is recorded as -1.58.

As for `CC[C@]1(CO)CCCN(Cc2ccccc2OCC(=O)N2CCCCC2)C1`, the “% Inhibition” value turned out to be 0% and the Z score is recorded as -0.06.

For the molecule `O=C(Nc1ccccc1-c1ncco1)N1CCC2(C1)OCCO2`, the “% Inhibition” value was determined as 13% and the Z score is reported as -1.52.

Turning to `CC(C)Oc1ccc([C@H]2CC(=O)Nc3c2cnn3Cc2ccco2)cc1`, the “% Inhibition” value was -1% and the Z score turned out to be 0.07.

As to `CN1CCC[C@H](C(=O)N2CCN(c3ccccc3O)CC2)C1`, the “% Inhibition” value was -4% and the Z score is recorded as 0.62.

Turning to `Nc1nnc(C2CCN(C(=O)OC3CCC3)CC2)o1`, the “% Inhibition” value was determined as 20% and the Z score is recorded as -2.57.

Consider `Cc1nn(C)c(C)c1S(=O)(=O)N1CCC=C(c2ccccn2)C1`, for which the “% Inhibition” value is on record as -8% and the Z score stood at 1.48.

As for `Cc1c(Br)cccc1C(=O)NC(C)(C)C(=O)O`, the “% Inhibition” value is listed as 1% and the Z score is reported as -0.24.

In the case of `O=C(N[C@@H](N1CCOCC1)C(Cl)(Cl)Cl)c1ccccc1Cl`, the “% Inhibition” value is listed as 37% and the Z score was -4.98.

As for `CN1C(=O)[C@H](CC(=O)NCCc2cnn(-c3ccccc3)c2)N(C)C1=O`, the “% Inhibition” value is on record as -6% and the Z score was determined as 1.

With `Cc1nc2c(NS(=O)(=O)c3c(C)noc3C)cccn2n1`, the “% Inhibition” value was -5% and the Z score amounted to 0.58.

Regarding `O=C1NCC[C@@H]1CCn1cnc2c1CCCC2`, the “% Inhibition” value is on record as -13% and the Z score worked out at 1.16.

Consider `COc1ccccc1N1CCN(C(=O)Cn2cnc3c([nH]c4ccc(C)cc43)c2=O)CC1`, for which the “% Inhibition” value stood at 6% and the Z score is listed as -1.13.

Take `Cc1ccc(N2CCC(C(=O)N3CC[C@H](CN(C)C)C3)CC2)nc1`: the “% Inhibition” value was -5% and the Z score is 0.78.

Take `O=C(Nc1ccccc1Cl)C1C2Cc3ccccc3C2ON1c1ccccc1` (centres undefined): the “% Inhibition” value is recorded as -15% and the Z score is listed as 1.69.

`c1cncc(-c2nc(N3CCCC4CCCCC43)c3ccccc3n2)c1` (centres undefined): the “% Inhibition” value was -5% and the Z score was found to be 0.98.

Take `Cc1oc(-c2cnn(C)c2)nc1C(=O)N(CC(F)(F)F)C1CCC1`: the “% Inhibition” value came to 2% and the Z score was -0.27.
